We go through 44 compounds from publication PMC4336329 (PLoS ONE, 2015).

Screen size: about 310,000 compounds; about 14,000 (4.5%) showed an effect of 50% or more. Effects have a minus sign here. The list shows a part of the results.
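Further: peak tail current of the secondary pulse compared with the same well before compound.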

Chain of human ether-à-go-go-related gene (hERG) potassium channel (Q12809 whole entry, looked up): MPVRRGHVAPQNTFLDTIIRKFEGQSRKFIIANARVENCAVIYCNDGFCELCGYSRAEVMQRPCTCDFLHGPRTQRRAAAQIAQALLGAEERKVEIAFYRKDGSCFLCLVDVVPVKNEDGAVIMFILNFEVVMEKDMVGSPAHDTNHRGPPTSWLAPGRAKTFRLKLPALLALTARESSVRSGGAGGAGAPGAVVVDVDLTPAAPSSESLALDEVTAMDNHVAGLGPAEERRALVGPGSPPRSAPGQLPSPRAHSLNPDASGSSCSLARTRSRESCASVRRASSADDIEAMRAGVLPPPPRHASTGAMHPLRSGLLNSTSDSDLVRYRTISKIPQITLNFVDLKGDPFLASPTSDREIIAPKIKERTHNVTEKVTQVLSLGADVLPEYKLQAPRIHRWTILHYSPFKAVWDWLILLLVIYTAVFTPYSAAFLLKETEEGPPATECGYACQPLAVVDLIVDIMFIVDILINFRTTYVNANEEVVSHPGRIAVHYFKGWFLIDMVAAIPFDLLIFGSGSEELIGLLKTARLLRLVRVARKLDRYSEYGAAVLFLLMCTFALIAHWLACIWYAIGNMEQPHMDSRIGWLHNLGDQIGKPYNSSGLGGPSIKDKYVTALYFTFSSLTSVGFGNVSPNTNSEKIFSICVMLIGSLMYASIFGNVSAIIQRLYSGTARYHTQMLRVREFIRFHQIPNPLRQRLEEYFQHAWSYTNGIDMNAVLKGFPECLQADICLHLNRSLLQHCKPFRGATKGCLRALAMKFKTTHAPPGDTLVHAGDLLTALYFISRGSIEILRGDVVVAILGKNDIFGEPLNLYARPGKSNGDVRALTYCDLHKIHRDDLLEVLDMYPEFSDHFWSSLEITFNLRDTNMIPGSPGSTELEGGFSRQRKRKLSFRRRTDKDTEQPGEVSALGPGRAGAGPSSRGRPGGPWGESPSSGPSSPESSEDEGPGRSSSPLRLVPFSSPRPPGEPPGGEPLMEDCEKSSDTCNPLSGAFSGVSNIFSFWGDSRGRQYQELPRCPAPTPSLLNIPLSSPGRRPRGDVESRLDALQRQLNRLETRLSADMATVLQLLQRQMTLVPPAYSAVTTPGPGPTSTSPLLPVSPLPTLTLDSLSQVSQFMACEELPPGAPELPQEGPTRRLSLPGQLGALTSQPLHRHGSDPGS

This test has as its target human ether-à-go-go-related gene (hERG) potassium channel (human, UniProt Q12809). Description: primary screen, population patch clamp on CHO cells stably expressing hERG.
Turning to `O=C1c2cccc3cccc(c23)C(=O)N1CCCN(C(=O)c1cccs1)c1cccc(F)c1`, the “hERG current change (%, negative = inhibition) at 10uM” value is recorded as 6.68%.

Turning to `COc1cc2ncnc(NCc3cc(F)ccc3F)c2cc1OC`, the “hERG current change (%, negative = inhibition) at 10uM” value is listed as -25.7%. As for `O=C(CNC1CCCCCC1)Nc1ccc(N2CCCC2)cc1.O=C(O)C(=O)O`, the figure is -29%; as for `c1ccc(C2Nc3ccccc3-c3nc4ccccc4n32)nc1` (centres unmarked), -1.28%.

Regarding `CC1CCc2c(sc3ncnc(NCCCOC(C)C)c23)C1.Cl` (centres unmarked), the “hERG current change (%, negative = inhibition) at 10uM” value is -20.4%. Then `Cc1ccc(NC(=O)CN(C)C(=O)c2cccc(Br)c2)cc1`, with 8.34%; and `Cc1ccc(CSc2nnc(-c3cnccn3)n2C)cc1`, with 9.53%; and `COc1ccccc1CNC(=O)Nc1cccs1`, with -13.6%. Consider `Cc1cccc(C)c1NC(=O)Cn1nc(-c2ccc(Cl)s2)ccc1=O`, for which the “hERG current change (%, negative = inhibition) at 10uM” value is listed as 12%. Then `Cl.OC(COc1ccc2c(c1)OCO2)CN1CCCC1` (centres unmarked), with 5.48%. As for `Cc1ccc2oc(=O)c3cc(C(=O)NCCN4CCN(C)CC4)sc3c2c1`, the “hERG current change (%, negative = inhibition) at 10uM” value is reported as -18.2%. As for `Cc1ccc(Cl)cc1N1CCN(C(=O)Cc2c(C(=O)O)[nH]c3ccc(Cl)cc23)CC1`, the figure is 26.1%; as for `C=CCOC(=O)C1=C(C)Nc2[nH]c(=O)[nH]c(=O)c2C1c1ccccc1` (centres unmarked), 21.1%.

On to `Cc1ccc(-c2cc(N)n3nc(-c4ccc(C)cc4)cc3n2)cc1`, for which the “hERG current change (%, negative = inhibition) at 10uM” value was determined as 11.9%. Then `COc1ccccc1C(=O)ON=C1c2ccccc2-c2ccccc21`, with 15.2%; and `COc1ccc(S(=O)(=O)N(C)CC(=O)NC2CCCCC2)cc1OC`, with 10.1%. Then `C[C@]12CCC(=O)C=C1CC[C@@H]1[C@@H]2[C@@H](O)C[C@@]2(C)[C@H]1CC[C@]2(O)C(=O)COC(=O)CCC(=O)[O-].[Na+]`, with 7.93%. As for `CCc1ccccc1NC(=O)CN(C)C(=O)c1cc(C2CC2)nn1-c1ccccc1`, the figure is 8.55%; as for `COC(=O)C1=CN(c2ccc(F)c(F)c2)C=C(C(=O)OC)C1c1ccc([N+](=O)[O-])cc1`, -23.5%. As for `CCCN(CC(=O)Nc1ccccc1C)C(=O)C1CC(=O)N(Cc2ccccc2)C1` (centres unmarked), the “hERG current change (%, negative = inhibition) at 10uM” value is -5.15%. As for `CC(C)c1nc2ccccc2n1CCC(=O)O`, the “hERG current change (%, negative = inhibition) at 10uM” value is 5.52%.

On to `CCOC(=O)C1(CCCc2ccccc2)CCN(Cc2ccn[nH]2)CC1`, for which the “hERG current change (%, negative = inhibition) at 10uM” value was -73%. As for `O=[N+]([O-])c1cccc(-c2nnn(C34CC5CC(CC(C5)C3)C4)n2)c1`, the “hERG current change (%, negative = inhibition) at 10uM” value was found to be 5.85%. On to `COC(=O)C(NC(C)=O)(Nc1cc(C)ccn1)C(F)(F)F` (centres unmarked), for which the “hERG current change (%, negative = inhibition) at 10uM” value came out at 9.34%. `CCOC(OCC)c1ccc(/C=C\c2nccc(N)n2)cc1`: the “hERG current change (%, negative = inhibition) at 10uM” value is -9.34%. As for `CCOc1ccc(CN(C)C(=O)CNC(=O)c2ccccc2)cc1`, the figure is 5.97%; as for `FC(F)(F)c1nc(N2CCN(c3ccccc3)CC2)nc2c1CCCCC2`, 6.74%. As for `Cc1ccc2nc(-c3ccc(NS(=O)(=O)c4ccc(F)c(F)c4)cc3)sc2c1`, the figure is 23.3%; as for `CCNc1c(NS(=O)(=O)c2ccc(OC)cc2)c(=O)oc2ccccc12`, -24.3%; as for `CC(C)CC(=O)Nc1ccc2nn(-c3ccccc3)nc2c1`, 20.7%. Then `CCC(Oc1ccc2c(=O)c(-c3ccccc3OC)coc2c1)C(=O)OCc1ccccc1` (centres unmarked), with 1.83%. Take `CC12CCC(C(=O)NCCN3CCCCC3)(CC1=O)C2(C)C` (centres unmarked): the “hERG current change (%, negative = inhibition) at 10uM” value is -2.12%. Consider `COc1ccccc1/C=N/NC(=O)c1ccc(Br)cc1`, for which the “hERG current change (%, negative = inhibition) at 10uM” value is reported as -19.7%. For the compound `CCOC(=O)c1ccc(NC(=O)NCc2ccc(OC)cc2)cc1`, the “hERG current change (%, negative = inhibition) at 10uM” value stood at 8.05%. Then `CCOC(=O)C1=C2c3ccc4ccccc4c3CC(C)(C)N2C(=O)C1=O`, with -2.31%. With `O=C(NCc1ccccc1)C1=C[C@@H](c2ccccc2)C[C@@H](OCc2ccc(CO)cc2)O1`, the “hERG current change (%, negative = inhibition) at 10uM” value is reported as -14.4%. As for `Cc1ccc(C(=O)NC(C)C(c2cccs2)N2CCCC2)s1` (centres unmarked), the figure is 15.8%; as for `CCN1CCN(c2cc(=O)n(Cc3ccc(F)cc3)c(=O)[nH]2)CC1`, 17%.

In the case of `COc1cc2cc(C(c3nnnn3C3CCCC3)N(C)C3CCCCC3)c(=O)[nH]c2cc1OC` (centres unmarked), the “hERG current change (%, negative = inhibition) at 10uM” value is -18.5%.

Regarding `Cn1cnc([N+](=O)[O-])c1S(=O)(=O)c1cccc(Cl)c1`, the “hERG current change (%, negative = inhibition) at 10uM” value is on record as -7.42%.

Regarding `N#C/C(=C\c1ccc(OCc2ccc(F)cc2)cc1)C(=O)Nc1cccc(C(=O)O)c1`, the “hERG current change (%, negative = inhibition) at 10uM” value is -9.19%. As for `COc1cc(OC)nc(Oc2ccccc2C(=O)Oc2cccc(C)c2)n1`, the “hERG current change (%, negative = inhibition) at 10uM” value was determined as 7.95%. Then `COc1ccc(CC(=O)OCC(=O)Nc2cccnc2Cl)cc1OC`, with 0.0826%; and `N#Cc1c2n(c3c(=S)nc[nH]c13)CCCCC2`, with 10.1%.
